Data from PubChem BioAssay AID588591 (National Center for Advancing Translational Sciences (NCATS), 2011).
The whole screen tested about 390,000 compounds, of which about 4,700 (1.2%) were called active. Inconclusive means that the source gave no clear call. Such entries were picked first, then a sample of the others. Calls follow the shape of the dose curve; as a rule, active = well fitted inhibition curve with a large enough effect; inconclusive = small, poorly fitted or top-dose-only effect, or another doubt; inactive = no such curve, though single readings can be large or run the other way. Potencies beside an inconclusive call are fits to weak or partial responses and may not hold up.

target: DNA polymerase eta (Homo sapiens) (UniProt Q9Y253); experiment: qHTS for Inhibitors of Polymerase Eta; details: recombinant Pol eta, fluorescent DNA replication assay; series mostly up to 114 µM; activity change, negative = inhibition: at the top concentration
In short: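 Fluorescent replication assay: 50 nM final substrate added after a 15 min room-temperature compound preincubation with 10 nM enzyme. Signal taken at 0 min and again at 10 min.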
% is scaled to controls: 0 for no effect and ±100 for the full control effect; potency is read from the fitted curve at half-maximal effect; tags tell the direction and shape of the fitted curve.

Sequence of UniProt Q9Y253 (Q9Y253 whole entry, looked up): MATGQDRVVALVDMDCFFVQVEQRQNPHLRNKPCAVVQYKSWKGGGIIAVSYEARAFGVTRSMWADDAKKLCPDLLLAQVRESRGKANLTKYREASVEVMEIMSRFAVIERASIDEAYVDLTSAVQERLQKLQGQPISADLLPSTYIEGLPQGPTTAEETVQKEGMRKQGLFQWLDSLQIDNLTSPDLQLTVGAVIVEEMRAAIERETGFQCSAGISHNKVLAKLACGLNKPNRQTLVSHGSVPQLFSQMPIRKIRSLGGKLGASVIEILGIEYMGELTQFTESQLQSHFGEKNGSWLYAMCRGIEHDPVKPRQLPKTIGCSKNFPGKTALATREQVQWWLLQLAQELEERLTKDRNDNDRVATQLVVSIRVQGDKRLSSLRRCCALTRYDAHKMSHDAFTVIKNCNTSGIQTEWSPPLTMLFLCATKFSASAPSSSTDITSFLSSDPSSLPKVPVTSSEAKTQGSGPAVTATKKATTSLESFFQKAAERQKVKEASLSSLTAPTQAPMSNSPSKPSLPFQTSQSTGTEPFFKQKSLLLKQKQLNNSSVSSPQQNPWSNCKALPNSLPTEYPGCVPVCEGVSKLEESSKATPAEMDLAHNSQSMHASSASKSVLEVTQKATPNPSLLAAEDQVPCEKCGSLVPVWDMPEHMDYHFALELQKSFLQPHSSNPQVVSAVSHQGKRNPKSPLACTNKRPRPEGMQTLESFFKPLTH

Structure (SMILES) | Potency | activity change, negative = inhibition
Cc1ccc(C)c(OCC(=O)NNC(=O)CSC(=S)N2CCCC2)c1 | inconclusive: 17.8 µM [inhibitor, partial curve, poor fit] | –
Cc1cccnc1NC(=O)CSc1ncnc2sc(C)c(C)c12 | inconclusive: 11.2 µM [inhibitor, full curve, poor fit] | –
O=C(Nc1ccc(S(=O)(=O)Nc2nccs2)cc1)c1cc(-c2ccncc2)nc2ccccc12 | active: 12.6 µM | –
Cn1nnc2cc(C(=O)NCc3ccco3)ccc21 | inconclusive: 31.6 µM [inhibitor, single point] | –
Cc1cc(C)c2nc(SCC(=O)NCCN3C(=O)CSC3=O)cc(C)c2c1 | inconclusive: 17.8 µM [inhibitor, single point] | –
COc1ccc(OCCCC(=O)OCC(=O)Nc2ccc(Cl)cn2)cc1 | – | inactive: -1.68%
O=C(CSc1nc(=O)n(Cc2ccccn2)c2c1CCC2)Nc1ccccc1 | – | inactive: -7.07%
CC(=O)Nc1cc(NC(C)=O)cc(C(=O)N2CCCC3CCCCC32)c1 (stereo not drawn) | active: 22.4 µM | –
O=C(CN(C(=O)CCC(=O)Nc1ccccn1)C1CCCC1)NCc1ccccc1 | inconclusive: 100 µM [inhibitor, partial curve, poor fit] | –
COc1ccccc1N1CCN(C(=O)CN2C(=O)COc3ccc(S(=O)(=O)N4CCOCC4)cc32)CC1 | – | inactive: -3.97%
CCOC(=O)C1=C(C)Nc2ccccc2N/C1=N\S(=O)(=O)c1cc(C(=O)O)ccc1Cl | active: 35.5 µM | –
Cc1ccc(N(CC(=O)N2CCN(c3ccc(F)cc3)CC2)S(=O)(=O)c2c(C)noc2C)cc1 | inconclusive: 50.1 µM [inhibitor, partial curve, poor fit] | –
O=C(O)CC(C(=O)O)c1ccc(OCCCCOc2ccc(C(CC(=O)O)C(=O)O)cc2)cc1 (stereo not drawn) | active: 17.8 µM | –
Cc1ccc(NC2=C(Cl)C(=O)c3ccccc3C2=O)cc1 | inconclusive: 35.5 µM [inhibitor, single point] | –
Clc1ccc(-c2ccc(C=Nc3ccc(N4CCOCC4)cc3)o2)c(Cl)c1 | inconclusive: 100 µM [inhibitor, partial curve, poor fit] | –
COc1ccc2c(c1)CC/C(=C\c1ccc(C)o1)C2=O | inconclusive: 0.224 µM [inhibitor, partial curve, poor fit] | –
COc1ccc(-n2nc3c(N4CCC(C(=O)NCc5ccccc5C)CC4)nnc(C)c3c2C)cc1 | inactive | –
CCOC(=O)c1sc(NC(=O)CSc2nnnn2-c2ccc(C)c(C)c2)nc1C | inconclusive: 15.8 µM [inhibitor, partial curve, poor fit] | –
CCOc1ccc(C2c3c(-c4cc(C)ccc4O)n[nH]c3C(=O)N2Cc2cccnc2)cc1OCC (stereo not drawn) | inconclusive: 79.4 µM [inhibitor, partial curve, poor fit] | –
COc1cc(/C=N/NC(=O)c2ccc(COc3cc(C)ccc3C(C)C)cc2)cc(OC)c1O | inconclusive: 35.5 µM [inhibitor, partial curve, poor fit] | –
CC1CC1C(=O)OCC(=O)Nc1ccc2[nH]c(=O)[nH]c2c1 (stereo not drawn) | active: 50.1 µM | –
Cc1cc(C(=O)C(C)Cl)c(C)n1Cc1ccco1 (stereo not drawn) | active: 70.8 µM | –
CCN(C(=O)COC(=O)/C(C#N)=C/c1ccc(N(C)C)cc1)C1CCS(=O)(=O)C1 (stereo not drawn) | – | inactive: -18.6%

Structure (SMILES) | Potency | activity change, negative = inhibition
Nc1ncnc2nc(SCC(=O)Nc3cccc(C(F)(F)F)c3)[nH]c12 | inconclusive: 3.55 µM [inhibitor, full curve, poor fit] | –
CN(C(=O)c1cc(C(=O)N(C)c2ccccc2)cc([N+](=O)[O-])c1)c1ccccc1 | – | inactive: -16.8%
CS(=O)(=O)c1nsc2nc(=O)c(/C=C3\C=Nc4ccccc43)c(N)n12 | inconclusive: 17.8 µM [inhibitor, full curve] | –
O=S(=O)(NCc1ccc(F)cc1)c1ccc(N2CCCCS2(=O)=O)cc1 | – | inactive: -12.1%
O=c1[nH]c(=O)n(Cc2ccco2)c2c1C(C(F)(F)F)(C(F)(F)F)N=C(c1ccco1)N2 | inconclusive: 10 µM [inhibitor, partial curve, poor fit] | –
CCOC(=O)c1sc(Nc2nc3cc4c(cc3s2)OCO4)cc1C | inconclusive: 39.8 µM [inhibitor, partial curve, poor fit] | –
Cc1noc(NS(=O)(=O)c2ccc(N/C=C\C(=O)c3ccc4c(c3)OCO4)cc2)c1C | inconclusive: 79.4 µM [inhibitor, partial curve, poor fit] | –
Cc1ccc(C2CC(=O)NC(SCC(=O)OCc3ccccc3)=C2C#N)o1 (stereo not drawn) | inconclusive: 28.2 µM [inhibitor, single point] | –
CC(C)Cn1cc(NC(=O)NCc2cccc(Cl)c2)c2ccccc2c1=O | – | inactive: -1.3%
C=CCc1cccc2cc(C(=O)NNC(=O)c3ccncc3)c(=O)oc12 | inconclusive: 17.8 µM [inhibitor, partial curve, poor fit] | –
O=C(CSc1ccccc1F)NC(=O)c1ccccc1Br | inconclusive: 25.1 µM [inhibitor, partial curve] | –
Cc1ccc(NC(=O)COC(=O)c2cc(-c3cccs3)nn2-c2ccccc2)cc1[N+](=O)[O-] | inconclusive: 22.4 µM [inhibitor, partial curve] | –
CCOC(=O)c1c(NC(=O)c2cc(=O)c3cc(C)ccc3o2)sc2c1CCCC2 | – | inactive: -21.7%
O=C(CN1CCOCC1)NNc1c2ccccc2nc2ccccc12 | – | inactive: -16.3%
Cc1cccc(-c2noc(-c3cc(C(C)C)[nH]n3)n2)c1 | – | inactive: -3.79%
O=[n+]1c2c(n([O-])c3cc(Br)ccc31)CCC2 | inconclusive: 28.2 µM [inhibitor, single point] | –
Cn1c(=O)c([N+](=O)[O-])c(Oc2ccccc2)c2ccccc21 | inconclusive: 50.1 µM [inhibitor, partial curve] | –
O=C(CC12CC3CC(CC(C3)C1)C2)N/N=C/c1ccc([N+](=O)[O-])o1 | inconclusive: 35.5 µM [inhibitor, partial curve, poor fit] | –
CCCS(=O)(=O)Nc1ccc(Nc2c3ccccc3nc3ccccc23)c(OC)c1 | inconclusive: 25.1 µM [inhibitor, full curve] | –
C=C1CCN(c2ccc(C(=O)NCc3ccc(C)cc3)cc2[N+](=O)[O-])CC1 | inconclusive: 89.1 µM [inhibitor, partial curve, poor fit] | –
S=C(NCCc1ccccc1)NCCc1ccccc1 | inconclusive: 89.1 µM [inhibitor, partial curve, poor fit] | –
COc1cc(NC(=O)c2c3c(nc4ccccc24)CCC3)cc(OC)c1 | – | inactive: 0.0122%
CCNc1nc(NCC)n2c(SCC(=O)Nc3ccc(CC)cc3)nnc2n1 | – | inactive: 2.95%

Structure (SMILES) | Potency | activity change, negative = inhibition
Cc1cc2oc(C(=O)Nc3sc4c(c3C(=O)NCc3ccco3)CCC4)cc(=O)c2cc1C | active: 50.1 µM | –
N=C1/C(=C\c2ccc(OC(=O)c3ccco3)cc2)C(=O)N=C2SC(N3CCCCC3)=NN12 | inconclusive: 20 µM [inhibitor, full curve] | –
Cc1ccc(C)c(NC(=O)Nc2nnc(N(CC(C)C)CC(C)C)s2)c1 | inconclusive: 44.7 µM [inhibitor, partial curve, poor fit] | –
Cc1ccc(-n2c3nc(=O)[nH]c(=O)c-3cc3cc([N+](=O)[O-])ccc32)cc1 | active: 44.7 µM | –
Cn1c(=O)c(-c2cc(=O)[nH][nH]2)c(O)c2ccccc21 | – | inactive: -7.59%
COc1ccc(NC(=O)CSc2ccc(-c3ccco3)nn2)cc1OC | inconclusive: 31.6 µM [inhibitor, single point] | –
COc1ccc(C2C=C(c3ccccc3)Nc3nc(NS(=O)(=O)c4ccccc4)nn32)cc1 (stereo not drawn) | active: 89.1 µM | –
Cc1cc(OCc2ccc(C(=O)Nc3ccc(C(=O)O)cc3)o2)ccc1Cl | inconclusive: 25.1 µM [inhibitor, full curve] | –
COc1ccc(C(=O)/C(C#N)=N/Nc2cccc([N+](=O)[O-])c2)cc1 | – | inactive: -4.13%
O/N=C1\CCC\C1=C/c1ccco1 | – | inactive: -32.3%
Cc1ccc(N2C(=O)C(CC(=O)Nc3ccc(F)cc3)N(CCC3=CCCCC3)C2=O)cc1 (stereo not drawn) | – | inactive: -11.6%
N#C/C(=C\c1ccccc1OCc1ccc(C(=O)O)cc1)C(=O)Nc1ccc(O)cc1 | inconclusive: 100 µM [inhibitor, partial curve, poor fit] | –
C=CCSc1nnc(NC(=O)CSc2nc3ccccc3[nH]2)s1 | inconclusive: 79.4 µM [inhibitor, single point] | –
CCCCNC(=O)c1ccc(Cn2c(=S)[nH]c3c([nH]c4ccc(OC)cc43)c2=O)cc1 | inconclusive: 39.8 µM [inhibitor, partial curve, poor fit] | –
Cc1ccc(-c2cn3c(n2)sc2cc(C(=O)NCCC4=CCCCC4)ccc23)c(C)c1 | – | inactive: -5.97%
CCCN(Cc1cccs1)C(=O)Nc1cc(C)ccc1OC | – | inactive: -15%
CCOc1ccc2nc(SCC(=O)NCc3ccc(OC)c(OC)c3)[nH]c2c1 | – | inactive: -19.2%
Fc1ccc2[nH]c3c(N4CCN(Cc5ccc6c(c5)OCO6)CC4)ncnc3c2c1 | inconclusive: 39.8 µM [inhibitor, partial curve, poor fit] | –
COC(=O)c1c(NC(=O)CN2CCOCC2)sc2c1CCC(C)C2 (stereo not drawn) | inconclusive: 56.2 µM [inhibitor, partial curve, poor fit] | –
O=C(Nc1ccc(N2CCCC2)c(S(=O)(=O)Nc2cccc(C(F)(F)F)c2)c1)c1cccs1 | inconclusive: 3.55 µM [inhibitor, partial curve, poor fit] | –
c1ccc(CCNc2nc(-c3ccccn3)nc3ccccc23)cc1 | – | inactive: -1.88%
O=C(NCc1ccccn1)C(=O)NCC(c1ccco1)N1CCOCC1 (stereo not drawn) | inconclusive: 79.4 µM [inhibitor, partial curve, poor fit] | –
